# Data taken from the supplement of paper PMC4604168 (melanoma cell lines).
# Some of the results follow. Most values come without repeats; read them as rough.
# Columns and labels:
# Assay in all cases: cell count relative to DMSO control; melanoma cells; higher = more viable cells
# Settings in all cases: library dose: standard library concentration; 72 h
# G361 = test system: G361
# IPC-298 = test system: IPC-298
# IST-MEL1 = test system: IST-MEL1
# LB2518-MEL = test system: LB2518-MEL
# LOXIMVI = test system: LOXIMVI
# MEL-HO = test system: MEL-HO
# MZ2-MEL = test system: MZ2-MEL
# MeWo = test system: MeWo
# RPMI7951 = test system: RPMI7951
# RVH-421 = test system: RVH-421
# SkMel28 = test system: SkMel28
# SkMel2 = test system: SkMel2
# SkMel30 = test system: SkMel30
# SkMel5 = test system: SkMel5
# UACC257 = test system: UACC257
# UACC62 = test system: UACC62
# WM115 = test system: WM115
# WM1716 = test system: WM1716
# WM1745 = test system: WM1745
# WM3526 = test system: WM3526
# 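Also: cells treated in 1,536-well plates, then fixed and DAPI-stained, with nuclei counted from automated high-throughput microscope images.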
Structure (SMILES),cell count (G361) [%],cell count (IPC-298) [%],cell count (IST-MEL1) [%],cell count (LB2518-MEL) [%],cell count (LOXIMVI) [%],cell count (MEL-HO) [%],cell count (MZ2-MEL) [%],cell count (MeWo) [%],cell count (RPMI7951) [%],cell count (RVH-421) [%],cell count (SkMel28) [%],cell count (SkMel2) [%],cell count (SkMel30) [%],cell count (SkMel5) [%],cell count (UACC257) [%],cell count (UACC62) [%],cell count (WM115) [%],cell count (WM1716) [%],cell count (WM1745) [%],cell count (WM3526) [%]
"O=C(Nc1cc(C(F)(F)F)cc(C(F)(F)F)c1)c1cc(Cl)ccc1O + CC1(C)NC(=O)N(c2ccc([N+](=O)[O-])c(C(F)(F)F)c2)C1=O [nilutamide] (first compound 0.08 µM, partner dose 5 µM)",81.7,81.1,72.5,80.2,78.8,86.4,98.4,64.3,68.5,106,60.7,87.6,92.6,71.9,83.9,82.2,72.4,88.3,89.2,80.3
"O=C(O)c1ccc2c(c1)nc(Nc1cccc(Cl)c1)c1ccncc12 + COc1cc2c(Oc3ccc4[nH]c(C)cc4c3F)ncnc2cc1OCCCN1CCCC1 [cediranib] (first compound 2 µM, partner dose 2 µM)",59.7,79.2,77.6,80.5,30.9,75.1,75.6,72.5,49.2,70.5,70.2,64.1,67.5,67.3,98.3,58.6,70.7,87.8,52.3,56.8
"Cn1nnc2c(C(N)=O)ncn2c1=O [temozolomide] + O=C(CCCCCCC(=O)Nc1ccccc1)NO [vorinostat] (first compound 10 µM, partner dose 0.4 µM)",81.1,80.8,79.8,83.6,92.1,101,92.1,81.1,95.6,78.6,48.8,81.3,65.1,90.9,58,57.3,74.2,55.9,90,77.3
"Cc1cc(N2CCOCC2)cc2[nH]c(-c3c(NC[C@@H](O)c4cccc(Cl)c4)cc[nH]c3=O)nc12 + COc1cc(N2CCC(N3CCN(C)CC3)CC2)ccc1Nc1ncc(Cl)c(Nc2ccccc2S(=O)(=O)C(C)C)n1 [NVP-TAE684] (first compound 1 µM, partner dose 0.4 µM)",69,93.3,90.2,80.9,55,86.7,101,63.1,49.5,100,67.7,70.4,104,54.6,97.2,70.8,60.9,80.8,52.1,65.3
"Cc1cc(N2CCOCC2)cc2[nH]c(-c3c(NC[C@@H](O)c4cccc(Cl)c4)cc[nH]c3=O)nc12 + CCN(CC)CCCCNc1ncc2cc(-c3cc(OC)cc(OC)c3)c(NC(=O)NC(C)(C)C)nc2n1 [PD173074] (first compound 1 µM, partner dose 0.5 µM)",67.5,89.5,108,84.7,58.1,90.8,108,67.1,68.9,76.1,92,77.2,83.7,70,98.1,97.2,92.7,111,50.8,75
"O=C(O)[C@@H]1[O][Sb](=[O])([O][Sb]2(=[O])[O][C@H]([C@H](O)CO)[C@H](O)[C@H](C(=O)O)[O]2)[O][C@H]([C@H](O)CO)[C@@H]1O (stereo not given in full) [stibogluconate] + COc1cc(Nc2ncc(F)c(Nc3ccc4c(n3)NC(=O)C(C)(C)O4)n2)cc(OC)c1OC [Tamatinib] (first compound 10 µM, partner dose 2 µM)",74.3,95.6,36.4,86.9,48,63,60.7,73.8,19.6,81.2,74.1,94.8,108,67.1,91.7,78.4,63.3,71.1,40.9,88.7
"O=C(O)[C@@H]1[O][Sb](=[O])([O][Sb]2(=[O])[O][C@H]([C@H](O)CO)[C@H](O)[C@H](C(=O)O)[O]2)[O][C@H]([C@H](O)CO)[C@@H]1O (stereo not given in full) [stibogluconate] + Cc1nc(Nc2ncc(C(=O)Nc3c(C)cccc3Cl)s2)cc(N2CCN(CCO)CC2)n1 [dasatanib] (first compound 10 µM, partner dose 0.02 µM)",67.9,68.5,62.6,55.4,8.51,62,39.2,80.2,46.3,61.7,55.8,71.6,86.8,68.3,47,59.5,55.7,72.5,30.2,73.1
"O=C(O)[C@@H]1[O][Sb](=[O])([O][Sb]2(=[O])[O][C@H]([C@H](O)CO)[C@H](O)[C@H](C(=O)O)[O]2)[O][C@H]([C@H](O)CO)[C@@H]1O (stereo not given in full) [stibogluconate] + C#Cc1cccc(Nc2ncnc3cc(OCCOC)c(OCCOC)cc23)c1 [erlotinib] (first compound 10 µM, partner dose 4 µM)",60.6,77,92,61.3,42.8,75.6,80.8,82.4,69.2,83.4,46.8,71.8,62.6,80.7,125,65.7,58.5,99.4,60.3,73
"Cc1cc(N2CCOCC2)cc2[nH]c(-c3c(NC[C@@H](O)c4cccc(Cl)c4)cc[nH]c3=O)nc12 + Cn1cc(/C=C2\C(=O)Nc3cccnc32)c2ccccc21 [GW441756] (first compound 1 µM, partner dose 2 µM)",79,97.4,104,96.3,92.4,88.6,99.4,79.7,83.9,103,70.4,84,85.8,60.4,79.3,97.1,76.8,101,59.6,66
"O=C(Nc1cc(C(F)(F)F)cc(C(F)(F)F)c1)c1cc(Cl)ccc1O + NC(=O)c1ccc(N(C(N)=O)c2c(F)cccc2F)nc1-c1ccc(F)cc1F [VX702] (first compound 0.08 µM, partner dose 2 µM)",87.5,94.5,86.1,98.7,127,108,96.4,101,124,172,88.1,119,106,88.8,107,81.2,103,128,119,111
"Cn1nnc2c(C(N)=O)ncn2c1=O [temozolomide] + CC1(C)NC(=O)N(c2ccc([N+](=O)[O-])c(C(F)(F)F)c2)C1=O [nilutamide] (first compound 10 µM, partner dose 5 µM)",98.8,90,71.2,89,78.6,84.1,91.9,102,102,94.6,46.9,98.7,60.8,77.8,98.8,76.4,68.9,54,91.5,94.5
"Cn1nnc2c(C(N)=O)ncn2c1=O [temozolomide] + CN(C)S(=O)(=O)c1ccc2c(c1)/C(=C/c1cc3c([nH]1)CCCC3)C(=O)N2 [SU6656] (first compound 10 µM, partner dose 2 µM)",62.8,75.3,71.6,73.6,97.6,81.2,88.2,85.2,62,90.4,37.3,133,62.5,70.4,76.6,63.1,33.4,50.4,63.2,76.1
"O=C(Nc1cc(C(F)(F)F)cc(C(F)(F)F)c1)c1cc(Cl)ccc1O + Cc1cc(N2CCOCC2)cc2[nH]c(-c3c(NC[C@@H](O)c4cccc(Cl)c4)cc[nH]c3=O)nc12 [BMS536924] (first compound 0.08 µM, partner dose 1 µM)",67.6,89.7,78.9,99.4,75.1,82,105,63.3,69.7,94.2,49.8,87.6,88.1,56.5,84.2,79.5,79.1,98.1,51.5,71.5
"O=C(O)c1ccc2c(c1)nc(Nc1cccc(Cl)c1)c1ccncc12 + Nc1ncn([C@H]2C[C@H](O)[C@@H](CO)O2)c(=O)n1 [decitabine] (first compound 2 µM, partner dose 0.5 µM)",60.5,37.4,58.1,77.8,50.9,63.4,48.7,54.7,47.3,87.3,53.3,66.9,60.6,52.4,87.7,74.9,68.7,68.6,67.3,68.6
"O=C(Nc1cc(C(F)(F)F)cc(C(F)(F)F)c1)c1cc(Cl)ccc1O + CCN(CC)CCNC(=O)c1c(C)[nH]c(/C=C2\C(=O)Nc3ccc(F)cc32)c1C [sunitinib] (first compound 0.08 µM, partner dose 2 µM)",79.9,78.9,92.2,66.7,140,80.7,82.2,67.4,66.6,82.6,70.2,68.6,65,55.7,82.3,67.8,51.7,101,47.7,69.9
"O=C(O)[C@@H]1[O][Sb](=[O])([O][Sb]2(=[O])[O][C@H]([C@H](O)CO)[C@H](O)[C@H](C(=O)O)[O]2)[O][C@H]([C@H](O)CO)[C@@H]1O (stereo not given in full) [stibogluconate] + COCC[n+]1c2c(n(Cc3cnccn3)c1C)C(=O)c1ccccc1C2=O [YM155] (first compound 10 µM, partner dose 0.002 µM)",95.7,59.5,44.4,55.8,74.6,98.1,42.7,77.8,53.1,113,51.5,66.5,105,49.9,29,100,73.1,74.7,121,50.3
